Measurements taken from the supplement of paper PMC12217912.
Some of the results follow. Sequences were assembled here from the parent chain. Inactive controls read about 0.05.

B1: TEV protease; numbered along this chain (parent)
chain: MGESLFKGPRDYNPISSSICHLTNESDGHTTSLYGIGFGPFIITNKHLFRRNNGTLVVQSLHGVFKVKDTTTLQQHLVDGRDMIIIRMPKDFPPFPQKLKFREPQREERICLVTTNFQTKSMSSMVSDTSCTFPSGDGIFWKHWIQTKDGQCGSPLVSTRDGFIVGIHSASNFTNTNNYFTSVPKNFMELLTNQEAQQWVSGWRLNADSVLWGGHKVFMVKPEEPFQPVKEATQL

Variants of: B1
Experiment: raw area under fraction-flipped curve 0-4 h after induction (AUC4h, not background-subtracted), DNA-recorder readout of cleavage of the substrate (dimensionless); higher = more cleavage of the substrate by the protease variant
Conditions: temperature: 34 °C; time window: 0-4 h after rhamnose induction
Method: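 In vivo DNA recorder in E. coli TOP10(DE3) ΔrhaA at 34 °C. Each TEVp single-site mutant (parent TEVp 0) is paired with a single-site variant of the 7-mer TEVs (canonical ENLYFQ|S). The substrate sits between flexible linkers in a Bxb1-sfGFP-TEVs-SsrA fusion, so cleavage stabilises Bxb1 and speeds flipping of a recombination array, read by NGS. The value is the raw area under the fraction-flipped curve over 0-4 h after rhamnose induction (AUC4h), with ≥20 reads per time point. It is not background-subtracted; inactive controls average about 0.047.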
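Further: Bxb1 expression induced with 0.2% (w/v) L-rhamnose at OD600 near 0.5, cultures sampled hourly, flipped fraction per protease–substrate barcode pair counted by paired-end Illumina sequencing.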

T129N
area with substrate ENAYFQS: 0.0475
area with substrate ENCYFQS: 0.0783
area with substrate ENDYFQS: 0.0617
area with substrate ENFYFQS: 0.077
area with substrate ENGYFQS: 0.0682
area with substrate ENHYFQS: 0.0695
area with substrate ENIYFQS: 0.123
area with substrate ENKYFQS: 0.0641
area with substrate ENMYFQS: 0.0727
area with substrate ENNYFQS: 0.0589
area with substrate ENQYFQS: 0.0571
area with substrate ENRYFQS: 0.0618
area with substrate ENSYFQS: 0.0337
area with substrate ENVYFQS: 0.0686

S130H
area with substrate ENAYFQS: 0.0499
area with substrate ENDYFQS: 0.0621
area with substrate ENEYFQS: 0.06
area with substrate ENGYFQS: 0.0758
area with substrate ENIYFQS: 0.105
area with substrate ENKYFQS: 0.0559
area with substrate ENPYFQS: 0.0627
area with substrate ENQYFQS: 0.0436
area with substrate ENRYFQS: 0.0565
area with substrate ENSYFQS: 0.0708
area with substrate ENTYFQS: 0.0424
area with substrate ENWYFQS: 0.0346

S130K
area with substrate ENAYFQS: 0.0631
area with substrate ENCYFQS: 0.056
area with substrate ENEYFQS: 0.058
area with substrate ENFYFQS: 0.0568
area with substrate ENGYFQS: 0.0471
area with substrate ENHYFQS: 0.054
area with substrate ENKYFQS: 0.0667
area with substrate ENMYFQS: 0.108
area with substrate ENNYFQS: 0.0785
area with substrate ENPYFQS: 0.0534
area with substrate ENQYFQS: 0.0605
area with substrate ENSYFQS: 0.0546
area with substrate ENTYFQS: 0.0608
area with substrate ENWYFQS: 0.0566

S130M
area with substrate ENAYFQS: 0.08
area with substrate ENCYFQS: 0.0677
area with substrate ENEYFQS: 0.0602
area with substrate ENFYFQS: 0.0651
area with substrate ENGYFQS: 0.0344
area with substrate ENKYFQS: 0.0658
area with substrate ENNYFQS: 0.0869
area with substrate ENQYFQS: 0.0654
area with substrate ENTYFQS: 0.0649
area with substrate ENVYFQS: 0.0755

C131V
area with substrate ENAYFQS: 0.0702
area with substrate ENDYFQS: 0.0563
area with substrate ENEYFQS: 0.0382
area with substrate ENGYFQS: 0.0747
area with substrate ENKYFQS: 0.052
area with substrate ENNYFQS: 0.0682
area with substrate ENRYFQS: 0.0629
area with substrate ENYYFQS: 0.0455

F133H
area with substrate ENAYFQS: 0.0661
area with substrate ENDYFQS: 0.0533
area with substrate ENFYFQS: 0.0574
area with substrate ENIYFQS: 0.128
area with substrate ENKYFQS: 0.0531
area with substrate ENMYFQS: 0.0754
area with substrate ENQYFQS: 0.0569
area with substrate ENSYFQS: 0.0692
area with substrate ENTYFQS: 0.0704
area with substrate ENWYFQS: 0.0637

F133R
area with substrate ENAYFQS: 0.065
area with substrate ENCYFQS: 0.074
area with substrate ENDYFQS: 0.0524
area with substrate ENEYFQS: 0.0579
area with substrate ENFYFQS: 0.0605
area with substrate ENGYFQS: 0.0347
area with substrate ENKYFQS: 0.066
area with substrate ENMYFQS: 0.0897
area with substrate ENNYFQS: 0.0695
area with substrate ENPYFQS: 0.0738
area with substrate ENQYFQS: 0.0491
area with substrate ENRYFQS: 0.0588
area with substrate ENSYFQS: 0.0679
area with substrate ENTYFQS: 0.0679
area with substrate ENYYFQS: 0.0645
